# Publication PMC4336329 (PLoS ONE, 2015)
# Hit rate of the full screen: of about 310,000 compounds, about 2,200 (0.71%) showed an effect of 50% or more. The effect is printed as a negative number. The list shows a part of the results.
# Target: human ether-à-go-go-related gene (hERG) potassium channel (human, UniProt Q12809)
# Assay: primary screen, population patch clamp on CHO cells stably expressing hERG
# human ether-à-go-go-related gene (hERG) potassium channel, sequence (Q12809 whole entry, looked up): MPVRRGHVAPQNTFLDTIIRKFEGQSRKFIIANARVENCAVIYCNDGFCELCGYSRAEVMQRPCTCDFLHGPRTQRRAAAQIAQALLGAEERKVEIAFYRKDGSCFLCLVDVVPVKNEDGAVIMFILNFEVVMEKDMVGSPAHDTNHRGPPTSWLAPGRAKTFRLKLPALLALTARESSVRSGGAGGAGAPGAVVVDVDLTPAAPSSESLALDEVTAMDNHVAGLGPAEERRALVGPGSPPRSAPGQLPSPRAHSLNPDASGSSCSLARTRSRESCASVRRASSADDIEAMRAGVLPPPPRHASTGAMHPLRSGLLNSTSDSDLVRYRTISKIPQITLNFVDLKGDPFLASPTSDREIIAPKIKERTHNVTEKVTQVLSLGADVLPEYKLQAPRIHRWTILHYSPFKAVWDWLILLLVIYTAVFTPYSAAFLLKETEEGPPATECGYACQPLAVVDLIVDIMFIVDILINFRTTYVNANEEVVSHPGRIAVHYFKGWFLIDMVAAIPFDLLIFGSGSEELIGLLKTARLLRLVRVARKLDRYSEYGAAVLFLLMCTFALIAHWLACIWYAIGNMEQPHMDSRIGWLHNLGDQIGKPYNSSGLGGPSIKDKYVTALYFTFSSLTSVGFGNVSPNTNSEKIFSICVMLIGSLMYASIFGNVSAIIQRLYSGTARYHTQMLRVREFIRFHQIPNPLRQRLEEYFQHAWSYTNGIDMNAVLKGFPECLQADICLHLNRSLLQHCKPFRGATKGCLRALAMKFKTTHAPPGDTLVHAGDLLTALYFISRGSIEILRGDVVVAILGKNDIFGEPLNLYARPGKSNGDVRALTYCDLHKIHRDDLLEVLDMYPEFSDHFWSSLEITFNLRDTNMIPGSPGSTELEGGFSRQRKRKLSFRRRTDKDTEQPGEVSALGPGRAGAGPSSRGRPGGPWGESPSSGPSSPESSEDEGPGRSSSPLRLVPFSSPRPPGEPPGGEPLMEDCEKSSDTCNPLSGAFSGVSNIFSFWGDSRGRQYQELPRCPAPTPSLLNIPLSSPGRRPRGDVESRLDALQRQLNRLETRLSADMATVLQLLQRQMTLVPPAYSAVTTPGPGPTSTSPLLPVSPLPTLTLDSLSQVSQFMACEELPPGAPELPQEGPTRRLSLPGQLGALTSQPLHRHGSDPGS
row,SMILES,"hERG current change (%, negative = inhibition) at 1uM [%]"
1,COc1ccccc1-c1nnc(SCC(=O)Nc2ccc(Cl)cc2Cl)o1,8.14
2,CCOC(=O)N1CCC(NC(=O)CCCC(=O)O)CC1,11.9
3,COC(=O)c1sc(S(=O)(=O)N2CCN(c3ccccc3)CC2)c(C(=O)OC)c1C,-3.8
4,C=CCn1c(SCC(=O)NC2CCS(=O)(=O)C2)nnc1-c1ccc(Cl)cc1 (stereo not shown),-2.52
5,CN(CC(=O)Nc1ccccc1Br)C(=O)c1sccc1-c1ccccc1,-0.469
6,COc1cccc(-c2c(C#N)c(SC)nc3cc(C)nn23)c1,5.19
7,Cc1cc(C(F)F)n2nc(C(=O)Nc3ccccc3Br)nc2n1,-0.168
8,O=C(NC1CCCCC1)C(c1ccccc1)N(Cc1ccco1)C(=O)c1csnn1 (stereo not shown),-5.76
9,COc1cccc(CN2C[C@]34C=C[C@@H](C[C@@H]3S2(=O)=O)O4)c1,7.34
10,Cc1cccc(OCC(=O)OC(C)CN2CCCCC2)c1.Cl (stereo not shown),4.54
11,COc1ccc2c(c1)C1=NN(/C(C)=C\C(C)=O)C(c3ccccc3)C1CC2 (stereo not shown),7.74
12,O=[N+]([O-])c1ccc(OC(F)F)c(/C=N/n2cnnc2)c1,1.14
13,CCOC(=O)N1CCN(Cc2cn[nH]c2-c2cccc3ccccc23)CC1,8
14,CSCCC(NC(=O)c1ccc(Cl)cc1)C(=O)OCC(=O)NCc1ccco1 (stereo not shown),1.29
15,NC(=O)CSc1nc2ccccc2n1-c1ccccc1,-1.86
16,N#Cc1c(SCC(=O)Nc2ccccc2C(F)(F)F)sc2c(O)cc(=O)[nH]c12,-0.616
17,Cc1ccccc1NC(=O)NCCCN1CCN(c2ccccc2)CC1,-20.3
18,Cc1ccc(C)c(-n2c(-c3csc(C)c3C)n[nH]c2=S)c1,9.24
19,COC(=O)c1ccc(NC(=O)CSc2nc(C)cc(=O)[nH]2)cc1,7.07
20,CCOC(=O)c1cnc(SCC(=O)OCC(=O)NC2CCS(=O)(=O)C2)nc1N (stereo not shown),12.1
21,COCCCNC(=O)c1cccc(OC)c1OC,14
22,CC(=O)O[C@H]1C[C@@]2(C)[C@@H](C[C@@H](O)[C@H]3[C@@]4(C)CC[C@@H](O)[C@@H](C)[C@@H]4CC[C@@]32C)/C1=C(\CCC=C(C)C)C(=O)[O-].[Na+],5.33

row,SMILES,"hERG current change (%, negative = inhibition) at 1uM [%]"
1,Cc1ccc(C)c(NC(=O)CCC(=O)N/N=C/c2ccc[nH]2)c1,8.87
2,CSc1nc(-c2ccccc2)c(C#N)c(=O)n1C,1.7
3,COc1ccc(CN2C(=O)c3ccccc3C(/C=N\OCc3ccc(C)cc3)C2=O)cc1 (stereo not shown),7.79
4,Cc1c(NC(=O)CN2C(=O)NC3(CCCCC3C)C2=O)cccc1[N+](=O)[O-] (stereo not shown),6.75
5,Cc1ccc(S(=O)(=O)N2CCN(C(=O)c3ccc(Br)o3)CC2)c(C)c1,-17.9
6,COc1ccc(S(=O)(=O)NCC2CCCN(Cc3ccc(OC)cc3F)C2)cc1 (stereo not shown),-11.2
7,CC1(C)C2CCC(C2)C1C/C=N/NC(N)=S (stereo not shown),8.94
8,O=C(COc1ccccc1)Nc1ccc(Cl)c(-c2nc3ncccc3o2)c1,11.4
9,CCC1CCCCN1CCCNC(=O)c1ccc(CS(=O)(=O)c2ccccc2OC)o1 (stereo not shown),11.9
10,O=C(C[n+]1ccccc1)N/N=C/c1ccc(F)cc1.[Cl-],15.9
11,c1ccc(Nc2ccnc(Nc3ccccc3)n2)cc1,10.9
12,COc1ccc(Cl)cc1NC(=O)CN(C)C(=O)c1sc2ccccc2c1Cl,9.53
13,Cc1nn(S(=O)(=O)c2ccccc2)c(C)c1Sc1ccc([N+](=O)[O-])cc1,5.98
14,CC(=O)Nc1cccc(C(=O)OC(C(=O)c2ccc(C)cc2)c2ccccc2)c1 (stereo not shown),6.33
15,CCC(=NCCc1ccccc1)c1c(O)[nH]c(=O)[nH]c1=O,14.1
16,O=C(NCCc1ccccn1)C1CCN(S(=O)(=O)c2ccc(Cl)cc2)CC1,-1.27
17,Nc1nc(Cl)cc(N2CCC(c3cc(-c4ccc(Cl)cc4)n[nH]3)CC2)n1,15.8
18,CCOC(=O)C1CCN(c2c(NCCN3CCCCC3C)c(=O)c2=O)CC1 (stereo not shown),-17.5
19,O=C(Nc1cccnc1Cl)c1noc2c1CCc1ccccc1-2,12.4
20,O=C(NC(=S)Nc1ccc(NC(=O)c2cccs2)cc1)c1ccc([N+](=O)[O-])cc1,2.85
21,O=C1CC(Cc2ccc(Br)cc2)C(=O)N1c1ccccc1 (stereo not shown),9.69
22,CC1CN(C(=O)Nc2ccccc2)c2ccccc2-[n+]2ccsc21.[Br-] (stereo not shown),7.17

row,SMILES,"hERG current change (%, negative = inhibition) at 1uM [%]"
1,COc1ccc(C(=O)N2CCN(CCCc3ccccc3)CC2)cc1OC.O=C(O)C(=O)O,-61.8
2,O=C(Cc1ccccc1)NC(NNc1ccccc1)(C(F)(F)F)C(F)(F)F,9.32
3,COc1cccc(NC(=O)CCCN2C(=O)C3CC=CCC3C2=O)c1 (stereo not shown),9.71
4,COc1cc(OC)cc(C(=O)NC2CCCN(Cc3ccc(Cl)cc3)C2)c1 (stereo not shown),15
5,COc1ccc(-c2ncncc2-c2csc(C)n2)c(O)c1OC,2.46
6,O=C(c1c(F)cccc1F)N1CCC(n2nnc3cc(C(F)(F)F)ccc32)CC1,5.01
7,Cc1cc(C)c(S(=O)(=O)Cc2ccccc2)c(Cl)n1,9.46
8,C=CCN(CC=C)C(=O)COn1nnc2ccc(S(=O)(=O)N3CCOCC3)cc21,5.05
9,S=c1[nH]nc(Cc2noc3ccccc23)n1-c1ccccc1,15.2
10,Cc1ccc2occ(/C=N/NC(=O)[C@@H](N)Cc3ccccc3)c(=O)c2c1.Cl,4.83
11,COC(=O)c1ccc(NC(=O)CN(C)Cc2cccc(F)c2)cc1,8.68
12,CCOC(=O)c1c(C)[nH]c(C(=O)OCC(=O)Nc2sccc2C(N)=O)c1C,13
13,O=C(N/N=C/c1ccccc1)c1ccc(CN2C(=O)c3cccc4cccc2c34)cc1,-0.233
14,O=C(O)C1CC=CCC1C(=O)Nc1ccc(F)c(F)c1 (stereo not shown),25.3
15,Cc1cccc(C(OC(=O)c2ccco2)C(=O)NCc2ccccc2)n1 (stereo not shown),-5.65
16,COC(=O)CCc1sc(NC2CCCCC2)nc1-c1ccc(OC)cc1,20.6
17,Cc1ccc(-c2nc(CCN3C(=O)c4ccccc4C3=O)cs2)cc1,6.2
18,CCOc1ccccc1Nc1nnc(SCC(=O)Nc2cccc(S(=O)(=O)NC3=NCCCCC3)c2)s1,6.99
19,O=c1c2[nH]c3ccc(F)cc3c2nc2n1CCCS2,6.32
20,CN(c1ccccc1)S(=O)(=O)c1cccc(C(=O)NC2CCCCC2)c1,8.28
21,CCOC(=O)c1c(-c2ccc(OCC)cc2)csc1NC(=O)CCN1C(=O)c2ccccc2C1=O,18.2
22,O=C(COC(=O)c1ccc(Cl)c(S(=O)(=O)N2CCCCC2)c1)NCC1CCCCC1,-6.25

row,SMILES,"hERG current change (%, negative = inhibition) at 1uM [%]"
1,CCn1c(SCC(=O)NCc2ccco2)nc2c1c(=O)n(C)c(=O)n2C,17.1
2,COc1cccc(C=NCCCN=Cc2cccc(OC)c2O)c1O,11.2
3,CCN(C(=O)CSc1nc2ccccc2o1)c1c(N)n(Cc2ccccc2)c(=O)[nH]c1=O,-12.3
4,Cc1ccc(N2C(=O)CCSC23C(=O)Nc2ccccc23)cc1 (stereo not shown),-0.447
5,O=C(Cn1nnc(-c2ccccc2NC(=O)c2cccs2)n1)Nc1ccccc1,6.64
6,C/C(=N/NS(=O)(=O)c1ccc(Cl)cc1)c1cccc(NC(=O)c2ccncc2)c1,2.59
7,CC(C)/C=C/CN1CCCC(N2CCN(c3cccc(Cl)c3)CC2)C1 (stereo not shown),-5.91
8,Cc1c(N2C(=O)/C(=C\c3ccccc3O)SC2=S)c(=O)n(-c2ccccc2)n1C,25.3
9,O=C(NCc1ccccc1)C1C(=O)N(Cc2ccccc2)C(=O)C1C1(O)CCCC1 (stereo not shown),14.8
10,COc1ccc(S(=O)(=O)N2CCC(C(=O)N[C@@H](C)C(=O)NCc3ccccc3OC)CC2)cc1,6.37
11,C=CCN1C(=O)C(CC(=O)Nc2ccccc2)N(Cc2ccccn2)C1=S (stereo not shown),1.26
12,CC1CCc2nc(NC(=O)CN3CCN(c4ccccc4)CC3)sc2C1 (stereo not shown),-1.35
13,CCOc1ccccc1OCCC(=O)OCC(=O)Nc1c(C)nn(-c2ccccc2)c1C,8.83
14,Cc1nc(C)c(C(=O)N(c2ccccc2F)C(C(=O)NCC2CCCO2)c2ccccc2)s1 (stereo not shown),9.5
15,COc1ccccc1-c1cn[nH]c1-c1ccc(OCc2ccc(F)cc2)cc1O,9.42
16,O=[N+]([O-])c1ccc(-c2c[nH]c(=S)[nH]2)cc1,8.17
17,CCOc1ccc(/C=C/C(=O)Nc2ccc(OC)cc2[N+](=O)[O-])cc1,6.49
18,Cn1c(=O)c2c(nc(Cl)n2CC(=O)NC2(C#N)CCCCC2)n(C)c1=O,8.19
19,O=C(NC(=S)NCCC1=CCCCC1)c1ccco1,16.4
